Sequences and labels used below:
B1: LINE1-mini (parent)
chain: GGCAGAGCUCAACACAGCGUGGCAAAGUGGCUGUGGCUAGACUGCC

The source of these data is the RNAGym collection of RNA variant scans (doi:10.7554/elife.90254).

Read counts are not given, so values of variants with three or more changes are uncertain.

This data set covers variants of B1. In words: self-cleavage, relative activity (ratio to wild type); higher = more cleavage; in vitro, sequencing; the parent is a self-cleaving ribozyme.
For GGCACAGGUCCAAACCGCGUGGCAAAGUGGCUGUGGCUAGACUGCA [G5C C8G A11C C13A A16C C46A], the self-cleavage was 0.03.

For the variant GGCACAGAUCAACACAUGGUGGGAAAGUGGCUGUGGCUAGACUGCC [G5C C8A G17U C18G C23G], the self-cleavage amounted to 0.26.

On to GGCACAGCUCAACACAGCGUGGCAAGGUGGCUGUGGCGAGACUCCC [G5C A26G U38G G44C], for which the self-cleavage amounted to 0.03.

On to GGCACAGAUCAAAACAGCGUGGCAUAGUGGCUGUGGCUAGGCUGCC [G5C C8A C13A A25U A41G], for which the self-cleavage is 0.17.

With GGCACAGCUCAACACCGCGUGAAAAAGUGGCUUUGGCUAGACUGCC [G5C A16C G22A C23A G33U], the self-cleavage was 0.37.

As for GGCACAGGUCAACACAGCGCGGCUACGUGGCUGUGGCUAGACUGCA [G5C C8G U20C A24U A26C C46A], the self-cleavage was 0.01.

For GGCACAGGACAACACAGCGUGGCUAAGUGGCUUUGGCUAGACUGCC [G5C C8G U9A A24U G33U], the self-cleavage worked out at 0.17.

Regarding GGCACAGCUCAUCACAGGUUGGCAAAGAGGCUGUGGCUAGACUGCC [G5C A12U C18G G19U U28A], the self-cleavage was determined as 0.01.

Turning to GGCACAGGUGAACACAGCGUGGCAAUGGGGCUUUGGCUAGACUGCC [G5C C8G C10G A26U U28G G33U], the self-cleavage amounted to 0.01.

Regarding GGCACAGCUCAACCCAGCGUGGCAAAGUGGCUGUGGCUAGGCUGCC [G5C A14C A41G], the self-cleavage was 0.03.

Consider GGCACAGUUCAACACAGGGUGGCAAAGUGGCUGUGGGUAGACUGCC [G5C C8U C18G C37G], for which the self-cleavage stood at 0.04.

On to GGCACAGCUCUACACAGCGUGGCAAAGAGGUUGUGGCUAGACUGAC [G5C A11U U28A C31U C45A], for which the self-cleavage was 0.03.

GGCACAGCUCAACACCGCGUGGCAAAGUGGCUGUGGCUAGACUACC [G5C A16C G44A]: the self-cleavage was 0.02.

With GGCACAGCUCAACGCAGCGUGGCAAAGUAGCUGUGGCUAGACCGCC [G5C A14G G29A U43C], the self-cleavage amounted to 0.02.

In the case of GGCACAGAUCUACACAGCGUGGCAAAGUGGCUGUGGCUAGACUGCC [G5C C8A A11U], the self-cleavage worked out at 0.02.

Turning to GGCACAGCUCAACUAAGCGUGGCAAAGUCGCUGUGGCUAGACUGCC [G5C A14U C15A G29C], the self-cleavage was 0.05.

In the case of GGCACAGCUCAACACAGCGUGGCAGAGUGGCUGUGGCUAGUCUGCC [G5C A25G A41U], the self-cleavage is 0.24.

Turning to GGCACAGCUCAACACGGUGUGGCAAAGUGGCUGAGGCUAGCCCGCC [G5C A16G C18U U34A A41C U43C], the self-cleavage turned out to be 0.07.

Regarding GGCACAGCUCAACACAGCGUGGCAAGGUGGCUGUGGCUAGGCUUCC [G5C A26G A41G G44U], the self-cleavage is 0.05.

As to GGCACAGCUCAACACCACGUGGCAAAGUGGCUGUCGCUAGACUGCC [G5C A16C G17A G35C], the self-cleavage came to 0.02.

As for GGCACAGCUCAACACUGCGUGGCAAAGUGGCUGUGGCUAUACUGCC [G5C A16U G40U], the self-cleavage is 0.34.

In the case of GGCACAGCUCAUCACAGCGUGGCAAAGUGGAUGUUGCUAGACUGCA [G5C A12U C31A G35U C46A], the self-cleavage was found to be 0.02.

Take GGCACAGCUCAUCACAGCGUGGCAACGUGGCUGUGGCUAGACUGCC [G5C A12U A26C]: the self-cleavage was 0.05.

Turning to GGCACAGCUCAACACAGCGUGGCAAGGAGGCUGUGGCGAGACUGCC [G5C A26G U28A U38G], the self-cleavage worked out at 0.03.

For the variant GGCACAGCUCUACACAGCGUGGCAAAGUGGCUUUGGCUAGACUGCC [G5C A11U G33U], the self-cleavage came to 0.07.

On to GGCACAGCUCAACACAGCGUGGCUAAGUGGCUUUGGCUAGACUGCC [G5C A24U G33U], for which the self-cleavage turned out to be 0.04.

As for GGCACAGCUCAGCACAGCGUGGUAAAGUAGCUGAGGCUAGACUGCC [G5C A12G C23U G29A U34A], the self-cleavage came out at 0.01.

On to GGCACAGCUCAACACUCCGUGGCAAAGUAGCUGUAGCUAGACUGCC [G5C A16U G17C G29A G35A], for which the self-cleavage was found to be 0.03.

As for GGCACAGUUCCACACAGCGUGGUAAAGUGGCUGUGGAUAGACUGCC [G5C C8U A11C C23U C37A], the self-cleavage is 0.01.

For the variant GGCACAGCUCAACACUGCGUGGCUAAGUGGCUGUGGCUAGACUGCC [G5C A16U A24U], the self-cleavage is 0.09.

In the case of GGCACAGCUCAACACAGCGUGGCAACGUGGCAAUGGCUAGACUGCC [G5C A26C U32A G33A], the self-cleavage turned out to be 0.08.

On to GGCACAGCUCAACACCGCGUGGCAAAGUGGCUGUCGCUAGACUGCC [G5C A16C G35C], for which the self-cleavage stood at 0.02.

In the case of GGCACAGCUCAACGCAGCGUGGCAAAGUGGCUGUGGCUAGACUCCC [G5C A14G G44C], the self-cleavage was 0.09.

As to GGCACAGGUCAACUCAGCGUGGCAAAGUGGAUGUGGCUAGUCUGCC [G5C C8G A14U C31A A41U], the self-cleavage was 0.12.

GGCACAGCUCGACACAGCGUGGCAAAGUGGAUGUGGCUGGACUGCC [G5C A11G C31A A39G]: the self-cleavage stood at 0.02.

For GGCACAGCUCAACACUGCGUGGCACAGUGGGUAUUGCUAGACUGCC [G5C A16U A25C C31G G33A G35U], the self-cleavage is 0.01.

On to GGCACAGCUCAACACAGCGUGGCAACGCGGCUGUGGGUAGACUGCC [G5C A26C U28C C37G], for which the self-cleavage worked out at 0.02.

As to GGCACAGCUCUACACAGCGUGGCAAAAUGGCUGUGGCUAGAGUGCA [G5C A11U G27A C42G C46A], the self-cleavage stood at 0.03.

For GGCACAGCUCAUCACGGCGUGGCCAAGUGGCCGUGGCUAGACUGCC [G5C A12U A16G A24C U32C], the self-cleavage was determined as 0.02.

Regarding GGCACAGCUCAACACGGCGUGGAAAACCGACUGUGGCUAGACUGCC [G5C A16G C23A G27C U28C G30A], the self-cleavage came out at 0.04.

As for GGCACAGCUCAACACAGCGUGGCAAUGUGGCUGUGGCCAGACUGCC [G5C A26U U38C], the self-cleavage amounted to 0.05.

Turning to GGCACAGCUCCACACAACGUGGCAAAGUGGCUGUGGCUAGACUUCC [G5C A11C G17A G44U], the self-cleavage worked out at 0.01.

Turning to GGCACAGCUCGACACAGCGUGGCAAAGUGCAUGUGGCUAGACAGCG [G5C A11G G30C C31A U43A C46G], the self-cleavage was 0.01.

As for GGCACAGCUCUACACGGCGUGGCAAAGUGGAUGUGGCAAGACAGCC [G5C A11U A16G C31A U38A U43A], the self-cleavage amounted to 0.01.

For GGCACAGCUCAACACGGCGUCGCAAUGUGGCUGUGGCUAGACUGCC [G5C A16G G21C A26U], the self-cleavage is 0.05.

Regarding GGCACAGCUCAACACUGCGUGGCAAAGUGGCUGUGGCUAGACUGUC [G5C A16U C45U], the self-cleavage worked out at 0.03.

Regarding GGCACAGUUCAACACAGGGUGGCAACGAAGCUGUGGCUAGACUGCC [G5C C8U C18G A26C U28A G29A], the self-cleavage was found to be 0.01.

GGCACAGCUCCACACAGCGUGGCAAAGUGGCUGUGGCUAGACCGCC [G5C A11C U43C]: the self-cleavage is 0.02.

As to GGCACAGCUCAACACAGCGUGGCAAGGUGGUUGUGGCUAUACUGCC [G5C A26G C31U G40U], the self-cleavage is 0.03.

As for GGCACAGCUCAUCACAGCGUGGCGAAGUGGCUGUGGCUAGACUGCC [G5C A12U A24G], the self-cleavage was determined as 0.06.

Consider GGCACAGCUCAACCCAGCGUGGCAAAGUGGCUGUGGCUAGACUUGC [G5C A14C G44U C45G], for which the self-cleavage turned out to be 0.03.

Take GGCACAGCUCUACACAGCGUGGCAAAGUGGCUGUGACUAGACGGCC [G5C A11U G36A U43G]: the self-cleavage amounted to 0.

For GGCACAGGUCAACAGAGCGUGGCAAAGAUGCUGUGGCUAGACUGCC [G5C C8G C15G U28A G29U], the self-cleavage was 0.12.

Consider GGCACAGCUCAACACAGCGUGGCGAAGUGGAUGUGGCUAGACUGCC [G5C A24G C31A], for which the self-cleavage was 0.02.

Take GGCACAGGUUAACACAGCGUGGCAAAGUGGGUGUGGCUAGAGUGCC [G5C C8G C10U C31G C42G]: the self-cleavage was determined as 0.04.

For GGCACAGCUCGAAACAGCGUGGCAAAGUGGCUGUGGGUAAACUGAC [G5C A11G C13A C37G G40A C45A], the self-cleavage was 0.01.
